# From the RNAGym collection of RNA variant scans (doi:10.1073/pnas.2313332121)
# Variants at the floor of the assay are shown more often than the library holds them.
# B1: TPR 5TU (parent)
# chain: GGAUCUUCUCGAUCUAACAAAAAAGACAAAUCUGCCACAAAGCUUGAGAGCAUCUUCGGAUGCAGAGGCGGCAGCCUUCGGUGGCGCGAUAGCGCCAACGUUCUCAACUAUGACACGCAAAACGCGUGCUCCGUUGAAUGGAGUUUAUCAUG
# Variants of: B1
# Test: polymerase ribozyme fitness, log enrichment relative to wild type (log ratio); higher = more active; in vitro selection for triplet polymerase activity
# How it was run: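 Mutant libraries of each subunit of a heterodimeric triplet polymerase ribozyme were built by PCR and transcribed. Each library went through one round of in vitro selection in triplicate: annealing with biotinylated primer, partner subunit and triplets, frozen incubation at −7 °C, gel excision of extended constructs, streptavidin-bead capture and RT-PCR. Input and output libraries were Illumina-sequenced; only genotypes with ≥10 input reads and ≥1 read per output were kept. Fitness is log2(genotype enrichment/wild-type enrichment), using inverse-variance-weighted replicate averages.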
row,Variant,polymerase ribozyme fitness (log ratio)
1,U9G C14G A39U G88C,≤ -4.2
2,U9G C14G U31G C32G C76U,≤ -4.2
3,U9G C27G U31G U61G C75G G94A C105U,≤ -4.2
4,U9G C27G U82C C96A C105U G140A U144A U148C,≤ -4.2
5,U9G C32A G62A A73G G88A A110G U135G G143A,≤ -4.2
6,U9G C32U C57G C87A C96U C99U U144G,≤ -4.2
7,U9G C35A A39G C87A C125U G143A U151A,-3.88
8,U9G C36A C57U G59A G74A C85G U90A C95A C114U A150U,≤ -4.2
9,U9G C43U G84C A119G,≤ -4.2
10,U9G C51G G84A G141C,≤ -4.2
11,U9G C54G G62A C75A G81C C93G C96A C103G,≤ -4.2
12,U9G C54U U55A C85A C95A A98G A106U,≤ -4.2
13,U9G C57G G84A C93U G124A U151G,≤ -4.2
14,U9G C75G G80C C87A G141U,≤ -4.2
15,U9G C76A U90G,≤ -4.2
16,U9G C85A,-3.76
17,U9G C85U G88C G117U A119U G141A,≤ -4.2
18,U9G C87A C95A U109A G133U U146G,≤ -4.2
19,U9G C87U,-4.11
20,U9G C118U C125A,≤ -4.2
21,U9G G25A A26U U53A C85A,≤ -4.2
22,U9G G34A A49C U56A C93A C95G G140C U146C,≤ -4.2
23,U9G G42A C57G C79U U82G C85G C105A U144C,≤ -4.2
24,U9G G50A,≤ -4.2

row,Variant,polymerase ribozyme fitness (log ratio)
1,U9G U13A A21C A41C U56G U90C C116G,≤ -4.2
2,U9G U13G A21U A41U U55A C75G C87U,≤ -4.2
3,U9G U13G G25C C27G C76A,≤ -4.2
4,U9G U15G U45A U53A C79G C87G A115C,≤ -4.2
5,U9G U31G C43U C72A C87U,≤ -4.2
6,U9G U31G C57U C69G A89U G92U U101A A119G,≤ -4.2
7,U9G U33G C85A C118A,≤ -4.2
8,U9G U33G G59A G140U,≤ -4.2
9,U9G U44A U53C C85U C108G A113U U145C,≤ -4.2
10,U9G U53A,-3.81
11,U9G U53A G86U C99G C105G U109C C118U U134A,≤ -4.2
12,U9G U77C C85A C108U A120C G141C,≤ -4.2
13,U9G U77C C85A U144A,≤ -4.2
14,U9G U139C,≤ -4.2
15,C10A A12G A23C U55A,≤ -4.2
16,C10A A12U A41G C96A A107C C114A,≤ -4.2
17,C10A A12U C54A C85U A107G,≤ -4.2
18,C10A A16C U44A C76A C87A,≤ -4.2
19,C10A A17U C36U C76U G84U U101A U104G C108U A121C,≤ -4.2
20,C10A A20C A28C C54A G83A G86U U104G C105G C129G G140A,≤ -4.2
21,C10A A20C C32A C93U C105U C123U C131G G141C,≤ -4.2
22,C10A A20U G50A A64U A142G U146C,≤ -4.2
23,C10A A20U G50U U55G G68U U90G A97U C99U A122C A142U,≤ -4.2
24,C10A A20U G58C U61G G83A G84A G126U,≤ -4.2

row,Variant,polymerase ribozyme fitness (log ratio)
1,C10A A20U G88U G128C U146G,≤ -4.2
2,C10A A23U G50C,≤ -4.2
3,C10A A23U U44A G70A G88A C114G,≤ -4.2
4,C10A A24U G50C G86U U102G C118U G141C,≤ -4.2
5,C10A A26G G59U A66G C85U C118A G136U,≤ -4.2
6,C10A A26U U78G C103G U145G,≤ -4.2
7,C10A A28G U56G C85A,≤ -4.2
8,C10A A60U G94A G140A U144G,≤ -4.2
9,C10A A66U C75A G94A,≤ -4.2
10,C10A A89G C96A U102G A115U A121C U148C,≤ -4.2
11,C10A C14U G86A A98G C129A,≤ -4.2
12,C10A C32U G50C U55G G74U G136A U151G,≤ -4.2
13,C10A C43A C76A C79A U101A U144G,≤ -4.2
14,C10A C43U A52C G67A U78C C93A A107G A142C,≤ -4.2
15,C10A C75U A91G U144G,≤ -4.2
16,C10A C85A C105U G141C,≤ -4.2
17,C10A C85G G141U,≤ -4.2
18,C10A C87G G88C C95G G140A,≤ -4.2
19,C10A C95U C116G G133U,≤ -4.2
20,C10A G25A A30C C93U C108U G117U,≤ -4.2
21,C10A G25U A28C A52U G68A C87A G88C C96G G152U,≤ -4.2
22,C10A G34U A40U C57U U78G C79U G84C C85A U104A A120C,≤ -4.2
23,C10A G34U C57U C76U C95G C116G,≤ -4.2
24,C10A G42A A47C U53A C96G C108A G133C,≤ -4.2

row,Variant,polymerase ribozyme fitness (log ratio)
1,C10A G42C A52U G81C C85U C87U C105U C118G G136A A137U,≤ -4.2
2,C10A G46U U61A C93U A106G,≤ -4.2
3,C10A G48A U55A G59C C85G,≤ -4.2
4,C10A G48C U82G A97U,≤ -4.2
5,C10A G50C C85A A115U C118U,≤ -4.2
6,C10A G81C U82A A98G A147G,≤ -4.2
7,C10A G86A A150C,≤ -4.2
8,C10A U13A A19C C27U C38U G83A C105G,≤ -4.2
9,C10A U13A U53A U144A,≤ -4.2
10,C10A U15A G58C A73G C96G A137U,≤ -4.2
11,C10A U31C C108U A137C G140A U148A,≤ -4.2
12,C10A U31G C35G G42C C69U G92A C95G G100A G143A,-3.74
13,C10A U33G U53G U56A G58A C96U C99A,≤ -4.2
14,C10A U45A C54U C63A C72A C93A G112C,≤ -4.2
15,C10A U53A G71C,≤ -4.2
16,C10A U55A C87A,≤ -4.2
17,C10A U102G,≤ -4.2
18,C10G A16U A49C C51G A52U U56A C103G U146A,≤ -4.2
19,C10G A19G G34A A52C C54G,≤ -4.2
20,C10G A19U G59C G92U A120G U135G C149G,≤ -4.2
21,C10G A20C U44A U77A G94U A107U,≤ -4.2
22,C10G A20G U55A G80U C85G C116U U130A G152A,≤ -4.2
23,C10G A21U A47U C87A A122U G128A C129A G133U,≤ -4.2
24,C10G A22G A52U U77G U148C C149G,≤ -4.2

row,Variant,polymerase ribozyme fitness (log ratio)
1,C10G A22U C35U C38U C54G G83A G84U C87A U127C C129A,≤ -4.2
2,C10G A23C U31G C75U C87G C93A G133U G136U,≤ -4.2
3,C10G A23U C36U G80U A98U C116G,≤ -4.2
4,C10G A28C C51A U61A C93U C99A,≤ -4.2
5,C10G A28C U78A G92A C116A,≤ -4.2
6,C10G A28G U82G G94C C95A G140A,≤ -4.2
7,C10G A28U C35U A91G C131A U145A U146G C149G,≤ -4.2
8,C10G A28U C36G G71U C95U C123U,≤ -4.2
9,C10G A28U C51U C96U C123A,≤ -4.2
10,C10G A28U U31C C76A U82C G86A G128U,≤ -4.2
11,C10G A29C C72A G88U,≤ -4.2
12,C10G A29U A39U G84C A98U U134C G140U G143A,≤ -4.2
13,C10G A37G G92C U135G A137G C149G,≤ -4.2
14,C10G A37U C95A C103G U109A A137U,≤ -4.2
15,C10G A37U U61C C116U G143C,≤ -4.2
16,C10G A40C C85A G92U A119C A147C,≤ -4.2
17,C10G A40G U61A G143U,≤ -4.2
18,C10G A49G C54A G67U G88A G92C G136C,≤ -4.2
19,C10G A49U A66G G84A C87U A98G,≤ -4.2
20,C10G A52U C54U A97U C132U,≤ -4.2
21,C10G A60U C96U G124U A150C,≤ -4.2
22,C10G A73G C87A A98U G140A U146G,≤ -4.2
23,C10G A73U C87U C108G C131A,≤ -4.2
24,C10G C14A G46C U55G G59A G68A A113U,≤ -4.2

row,Variant,polymerase ribozyme fitness (log ratio)
1,C10G C14G A29C C69U C103A G112C A138C U139C,≤ -4.2
2,C10G C18U A40C U44A C93G,≤ -4.2
3,C10G C18U G59U G86A C103A,≤ -4.2
4,C10G C27G C32A A60G G65C G84C C87G U134A,≤ -4.2
5,C10G C32A G86U G92C G124A A137G,≤ -4.2
6,C10G C35A G81A C149U,≤ -4.2
7,C10G C35A G84U U101G U148G,≤ -4.2
8,C10G C35U,-3.4
9,C10G C36G A47U G65U C79G C93U C99G G126C U144C U148C,≤ -4.2
10,C10G C38U A91U U104G C114U G133U,≤ -4.2
11,C10G C38U C87A C93G C105A,≤ -4.2
12,C10G C43G G46U C76A,≤ -4.2
13,C10G C54A U77G A98U C99G A107G,≤ -4.2
14,C10G C54U G58U U82A G94C G143U,≤ -4.2
15,C10G C54U G84U A89G,≤ -4.2
16,C10G C63U C85A C132U,≤ -4.2
17,C10G C69G U78C C85U A97U C103U,≤ -4.2
18,C10G C76U,-3.93
19,C10G C85G A121U U151G,≤ -4.2
20,C10G C85U A91C C105A,≤ -4.2
21,C10G G11A G50A C79U C87G U101G,≤ -4.2
22,C10G G11U C32A C51U C75U C93U C95A,-4.16
23,C10G G34U C85A,≤ -4.2
24,C10G G46A U55A G65A A73G U134A,≤ -4.2

row,Variant,polymerase ribozyme fitness (log ratio)
1,C10G G59A C79A C123A U135G,≤ -4.2
2,C10G G62A U144C,≤ -4.2
3,C10G G71U C93U G117A,≤ -4.2
4,C10G G81C C87A U127C U144A U148A,≤ -4.2
5,C10G G88A U102G C116U,≤ -4.2
6,C10G G92C,-3.61
7,C10G G92C U111A C114A,≤ -4.2
8,C10G G92U,-3.24
9,C10G U13A A23U C32A A41G G71C C87U C105U A115U,≤ -4.2
10,C10G U15G A37C C87G A137U,≤ -4.2
11,C10G U45A A47C G84C U101G U151A,≤ -4.2
12,C10G U56G C57A G74C A91U C96A A106G,≤ -4.2
13,C10G U61A G74U G81U C85G,≤ -4.2
14,C10U A12C A40G G48C U55A U145G U148C C149G,≤ -4.2
15,C10U A12C C18G A20C A23C C76A C93G U139A,≤ -4.2
16,C10U A12U A39U C51G C96G,≤ -4.2
17,C10U A17G A52C C75U C99U U102C U127A U135A,≤ -4.2
18,C10U A19G A28U U55A U56A A66U G74A G84U,≤ -4.2
19,C10U A19U A41C G42U U55A C96A U151C,≤ -4.2
20,C10U A20C A40C U55G C57U G92C,≤ -4.2
21,C10U A20G C85A U102G U127G,≤ -4.2
22,C10U A22U A29G U53G C75A G83A A106U A150C,≤ -4.2
23,C10U A26G A73U G94A,≤ -4.2
